Like-named read-outs stand apart in the source and are kept apart here.
System: cultured bloodstream T. brucei (strain 427)
Assay: microbe, parasite or virus in culture
Conditions: Trypanosoma brucei
[1] = read-out: T. brucei Alamar Blue
[2] = read-out: T. brucei Alamar Blue (% survival)

| Compound | viability at 500 µM [1] [%] | other results |
| --- | --- | --- |
| Nc1ccc(CN2CCOCC2)cc1 [compound 567, 4‐(morpholinomethyl)aniline] | 108.5 ± 0.2 |  |
| CC(=O)c1c(O)cccc1O [compound 204, 1-(2,6-dihydroxyphenyl)ethan-1-one] | 45.2 ± 9.7 | viability at 500 µM [2]: 45.2 ± 9.7% |
| NC(=O)Cc1ccc(F)cc1Cl [compound 519, 2‐(2‐chloro‐4‐fluorophenyl)acetamide] | 105 ± 15.1 |  |
| CNCc1cccc(-c2cccnc2)c1 [compound 606, N‐methyl‐N‐(3‐pyridin‐3‐ylbenzyl)amine] | 43.2 ± 12.9 |  |
| CCOC(=O)c1csc(C)n1 [compound 356, ethyl 2‐methyl‐1,3‐thiazole‐4‐carboxylate] | 101 ± 3.7 |  |
| OCc1csc(-c2cccnc2)n1 [compound 566, (2‐pyridin‐3‐yl‐1,3‐thiazol‐4‐yl)methanol] | 84.4 ± 17.3 |  |
| C1CNCCNC1 [compound 13, 1,4‐diazepane] | 102 ± 15.4 |  |
| O=C(O)c1ccccc1-c1ccco1 [compound 520, 2-(2-furyl)benzoic acid] | 35.4 ± 8.7 | viability at 500 µM [2]: 35.4 ± 8.7%; IC50 (read-out: T. brucei ED50, ED50 ± SD (n = 4)): 76.1 ± 6 µM |
| OCc1ccc(Oc2ccccn2)cc1 [compound 629, [4‐(pyrid‐2‐yloxy)phenyl]methanol] | 82 ± 5.4 |  |
| CC(=O)c1nccs1 [compound 79, 1‐(1,3‐thiazol‐2‐yl)ethan‐1‐one] | 114 ± 19.2 |  |
| O=C1CCSc2ccc(Cl)cc21 [compound 609, 6-chloro-3,4-dihydro-2H-1-benzothiin-4-one] | 86.3 ± 6.6 | viability at 500 µM [2]: 86.3 ± 6.6% |
| OCc1ccncc1 [compound 18, 4‐pyridinylmethanol] | 101 ± 1.3 |  |
| Cc1ccc2cc(C(=O)O)ccc2n1 [compound 510, 2‐methyl‐6‐quinolinecarboxylic acid] | 91.2 ± 16.1 |  |
| OCc1ncoc1-c1ccccc1 [compound 397, (5‐phenyl‐1,3‐oxazol‐4‐yl)methanol] | 24.2 ± 6.1 |  |
| Nc1cccc(-c2cnco2)c1 [compound 267, 3‐(1,3‐oxazol‐5‐yl)aniline] | 71.1 ± 9.8 |  |
| Cc1nc(-c2cccc(N)c2)cs1 [compound 546, 3‐(2‐methyl‐1,3‐thiazol‐4‐yl)aniline] | 52.8 ± 15.6 |  |
| Nc1ccc(CO)cn1 [compound 66, (6‐amino‐3‐pyridinyl)methanol] | 29.6 ± 6.1 |  |
| NCc1ccoc1 [compound 5, 3‐furylmethylamine] | 79.2 ± 7.9 |  |
| OCc1ccc2nccn2c1 [compound 171, imidazo[1,2‐a]pyridin‐6‐ylmethanol] | 81.7 ± 2.5 |  |
| N#Cc1ccccc1-n1cccc1 [compound 336, 2‐(1H‐pyrrol‐1‐yl)benzonitrile] | 33.1 ± 13 |  |
| NC(=S)c1ccccc1 [compound 123, benzene‐1‐carbothioamide] | 107 ± 16.2 |  |
| Cc1ccsc1CN [compound 83, (3‐methyl‐2‐thienyl)methylamine] | 95.7 ± 2.4 |  |
| CNCc1ccc(Cl)cc1 [compound 231, N‐(4‐chlorobenzyl)‐N‐methylamine] | 86.3 ± 3.2 |  |
| OCc1ccccc1N1CCOCC1 [compound 580, (2‐morpholinophenyl)methanol] | 88.6 ± 0.9 |  |
| CNCc1cccc(-c2nccs2)c1 [compound 653, N‐methyl‐3‐(1,3‐thiazol‐2‐yl)benzylamine] | 26.6 ± 6.5 |  |
| OCc1ccc(-c2cccs2)s1 [compound 598, 2,2′-bithien-5-ylmethanol] | 55.3 ± 15.6 | viability at 500 µM [2]: 55.3 ± 15.6% |

| Compound | viability at 500 µM [1] [%] | other results |
| --- | --- | --- |
| OCc1ccc(-c2ccccn2)cc1 [compound 490, (4‐pyrid‐2‐ylphenyl)methanol] | 77 ± 4.4 |  |
| Nc1cccc(Cn2ccnc2)c1 [compound 377, 3‐(1H‐imidazol‐1‐ylmethyl)aniline] | 93.8 ± 15.8 |  |
| O=C(O)c1cccc(N2CCCCC2)c1 [compound 663, 3‐piperidinobenzoic acid] | 78.6 ± 22.6 |  |
| Nc1ccccc1N1CCOCC1 [compound 436, 2‐morpholinoaniline] | 83 ± 6.1 |  |
| CC(C)(C)C(=O)Nc1ccncc1 [compound 439, 2,2‐dimethyl‐N‐(4‐pyridinyl)propanamide] | 61 ± 18.6 |  |
| Cc1cc(Cl)ccc1C(=O)O [compound 350, 4‐chloro‐2‐methylbenzoic acid] | 84.2 ± 12.3 |  |
| COC(=O)Cc1cccc(OC)c1 [compound 451, methyl 2‐(3‐methoxyphenyl)acetate] | 50.7 ± 17.1 |  |
| NCCc1cccs1 [compound 81, 2‐(2‐thienyl)ethylamine] | 72.3 ± 9 |  |
| OC1CCC(C(F)(F)F)CC1 (stereo not shown) [compound 333, 4‐(trifluoromethyl)cyclohexan‐1‐ol] | 99.1 ± 5.6 |  |
| O=C(O)c1cccs1 [compound 85, thiophene‐2‐carboxylic acid] | 101 ± 12.4 |  |
| Nc1ccncc1 [compound 2, pyridin‐4‐amine] | 98.8 ± 6.7 |  |
| c1ccc(Cn2cccc2)nc1 [compound 249, 2‐(1H‐pyrrol‐1‐ylmethyl)pyridine] | 79.2 ± 9.3 |  |
| CNCc1ccc2ncccc2c1 [compound 366, N‐methyl‐N‐(quinolin‐6‐ylmethyl)amine] | 41.5 ± 2.8 |  |
| O=C(O)Cc1cc(F)cc(F)c1 [compound 359, 2‐(3,5‐difluorophenyl)acetic acid] | 95.2 ± 10.8 |  |
| Cc1ccc(C(N)=O)c(N)c1 [compound 190, 2-amino-4-methylbenzamide] | 41.9 ± 11 | viability at 500 µM [2]: 41.9 ± 11% |
| COC(=O)c1cccc(N)c1 [compound 194, methyl 3‐aminobenzoate] | 89.8 ± 7 |  |
| COc1ccc(CC#N)cc1 [compound 161, 2‐(4‐methoxyphenyl)acetonitrile] |  | viability at 500 µM (read-out: T. brucei Alamar Blue, Supplementary Table 1, compound 0.5 mM, percentage of controls in the absence of compound, mean ± SD (n=3) or SE (n=2)): 101 ± 1.7% |
| OCc1ccc(N2CCOCC2)cc1 [compound 578, (4‐morpholin‐4‐yl‐phenyl)‐methanol] | 93 ± 7.9 |  |
| O=C(O)c1ccc(C(F)(F)F)cc1 [compound 539, 4‐(trifluoromethyl)benzoic acid] | 80 ± 13.8 |  |
| O=C(O)C(O)c1ccccc1 (stereo not shown) [compound 202, 2‐hydroxy‐2‐phenylacetic acid] | 107 ± 16 |  |
| NCc1ccc(F)cc1 [compound 71, 4‐fluorobenzylamine] | 73.4 ± 16.8 |  |
| O=C(O)CCc1cccs1 [compound 237, 3‐(2‐thienyl)propanoic acid] | 85.3 ± 11.8 |  |
| OCc1cccc(N2CCCC2)c1 [compound 428, (3‐pyrrolidin‐1‐ylphenyl)methanol] | 37.2 ± 16.5 |  |
| Cn1cncc1C#N [compound 15, 1‐methyl‐1H‐imidazole‐5‐carbonitrile] | 93.4 ± 4.5 |  |
| COC(=O)c1cccs1 [compound 138, methyl thiophene‐2‐carboxylate] | 111 ± 2.8 |  |
| Nc1cccc(Oc2ccccn2)c1 [compound 506, 3‐(pyridin‐2‐yloxy)aniline] | 103 ± 5.4 |  |

| Compound | viability at 500 µM [1] [%] | other results |
| --- | --- | --- |
| O=C(O)c1cncc(-c2ccccc2)c1 [compound 615, 5‐phenylnicotinic acid] | 77.6 ± 10.5 |  |
| OCc1cccc(-c2cncnc2)c1 [compound 504, (3‐pyrimidin‐5‐ylphenyl)methanol] | 87.8 ± 5.8 |  |
| OCc1cnccn1 [compound 23, 2‐pyrazinylmethanol] | 110 ± 11.8 |  |
| NC(=O)c1ccc(F)c(Cl)c1 [compound 380, 3‐chloro‐4‐fluorobenzamide] | 90.8 ± 9.6 |  |
| CC(=O)NCc1cccnc1 [compound 188, N1‐(3‐pyridylmethyl)acetamide] | 88.2 ± 7 |  |
| N#Cc1ccccc1OC(F)(F)F [compound 509, 2‐(trifluoromethoxy)benzonitrile] | 114 ± 19.6 |  |
| CCC1CCC(N)CC1 (stereo not shown) [compound 84, 4‐ethylcyclohexanamine] | 95.1 ± 12.8 |  |
| O=C(O)CCc1ccco1 [compound 131, 3‐(2‐furyl)propanoic acid] | 52.6 ± 15.5 |  |
| OCc1cc2ccccc2s1 [compound 301, 1‐benzothiophen‐2‐ylmethanol] | 68.5 ± 7.6 |  |
| O=C(O)C1CCNCC1 [compound 90, piperidine‐4‐carboxylic acid] | 75.1 ± 12.4 |  |
| Cn1nc2ccccc2c1CO [compound 285, (2‐methyl‐2H‐indazol‐3‐yl)methanol] | 70.7 ± 13.2 |  |
| CN1CCN(c2ccc(N)cc2)CC1 [compound 562, 4‐(4‐methylpiperazino)aniline] | 15.6 ± 6.1 |  |
| CCOC(=O)C1CSCCN1 (stereo not shown) [compound 402, ethyl thiomorpholine‐3‐carboxylate] | 114 ± 12.9 |  |
| Clc1ccc(Cl)s1 [compound 211, 2,5‐dichlorothiophene] | 102 ± 10.9 |  |
| COc1ccc(Cl)cc1N [compound 246, 5‐chloro‐2‐methoxyaniline] | 85.4 ± 17.2 |  |
| Cc1ccc(O)c2c1CCC2 [compound 173, 7‐methylindan‐4‐ol] | 29.6 ± 6 |  |
| N#Cc1ccc(N)cc1C(F)(F)F [compound 500, 4‐amino‐2‐(trifluoromethyl)benzonitrile] | 27 ± 2.3 |  |
| OCc1ccc(OC(F)(F)F)cc1 [compound 563, [4‐(trifluoromethoxy)phenyl]methanol] | 112 ± 10.3 |  |
| OC12CC3CC(CC(C3)C1)C2 [compound 209, adamantan‐1‐ol] | 101 ± 11.5 |  |
| NCc1ccc2sccc2c1 [compound 294, 1‐benzothiophen‐5‐ylmethylamine] | 49.4 ± 20 |  |
| OCc1ccccc1C(F)(F)F [compound 407, [2‐(trifluoromethyl)phenyl]methanol] | 101 ± 9.7 |  |
| Cc1ccc2cc(CO)ccc2n1 [compound 374, (2‐methyl‐6‐quinolinyl)methanol] | 74.9 ± 15.6 |  |
| NC(=S)c1ccno1 [compound 86, isoxazole‐5‐carbothioamide] | 101 ± 3.2 |  |
| NCc1ccc(-c2ccco2)cc1 [compound 373, [4‐(2‐furyl)phenyl]methylamine] | 50.5 ± 24.8 |  |
| COC(=O)c1ccoc1C [compound 132, methyl 2-methyl-3-furoate] | 34.3 ± 8.4 | viability at 500 µM [2]: 34.3 ± 8.4% |
| COc1ccc(OC)c(CN)c1 [compound 329, 2,5‐dimethoxybenzylamine] | 24.1 ± 3.4 |  |
